# Experimental data as given in the supplement of paper PMC8728848.
# The list shows a part of the results.
# B1: Siglec-F (Mus musculus), Q920G3 (protein)
# chain: MRWAWLLPLLWAGCLATDGYSLSVTGSVTVQEGLCVFVACQVQYPNSKGPVFGYWFREGANIFSGSPVATNDPQRSVLKEAQGRFYLMGKENSHNCSLDIRDAQKIDTGTYFFRLDGSVKYSFQKSMLSVLVIALTEVPNIQVTSTLVSGNSTKLLCSVPWACEQGTPPIFSWMSSALTSLGHRTTLSSELNLTPRPQDNGTNLTCQVNLPGTGVTVERTQQLSVIYAPQKMTIRVSWGDDTGTKVLQSGASLQIQEGESLSLVCMADSNPPAVLSWERPTQKPFQLSTPAELQLPRAELEDQGKYICQAQNSQGAQTASVSLSIRSLLQLLGPSCSFEGQGLHCSCSSRAWPAPSLRWRLGEGVLEGNSSNGSFTVKSSSAGQWANSSLILSMEFSSNHRLSCEAWSDNRVQRATILLVSGPKVSQAGKSETSRGTVLGAIWGAGLMALLAVCLCLIFFTVKVLRKKSALKVAATKGNHLAKNPASTINSASITSSNIALGYPIQGHLNEPGSQTQKEQPPLATVPDTQKDEPELHYASLSFQGPMPPKPQNTEAMKSVYTEIKIHKC
# How the values were obtained:
# Experiment in all cases: glycan array binding signal (z-score within array); higher = stronger binding
# Settings in all cases: glycan notation: IUPAC condensed, linker removed
# [1] = target: Neu5Ac(a2-8)Neu5Ac(a2-3)Gal(b1-3)GalNAc(b1-4)[Neu5Ac(a2-3)]Gal(b1-4)Glc
# Summary of the method: (§1)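 The binding signal is a Z-score computed within each array. Data were drawn from 3228 arrays in the Consortium for Functional Glycomics database, restricted to those with a known protein sequence. Scores were averaged over arrays of the same protein sequence at different concentrations or buffers, and over linkers, and negative values can be taken as non-binding.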
# [2] = target: Neu5Ac(a2-8)Neu5Ac(a2-3)Gal(b1-3)GalNAc(b1-4)[Neu5Ac(a2-8)Neu5Ac(a2-3)]Gal(b1-4)Glc
# Summary of the method: as §1
# [3] = target: Neu5Ac(a2-8)Neu5Ac(a2-3)Gal(b1-4)Glc
# Summary of the method: as §1
# [4] = target: Neu5Ac(a2-8)Neu5Ac(a2-3)Gal(b1-4)GlcNAc
# Summary of the method: as §1
# [5] = target: Neu5Ac(a2-8)Neu5Ac(a2-3)[Gal(b1-3)GalNAc(b1-4)]Gal(b1-4)Glc
# Summary of the method: as §1
# [6] = target: Neu5Ac(a2-8)Neu5Ac(a2-3)[GalNAc(b1-4)]Gal(b1-4)Glc
# Summary of the method: as §1
# [7] = target: Neu5Ac(a2-8)Neu5Ac(a2-8)Neu5Ac
# Summary of the method: as §1
# [8] = target: Neu5Ac(a2-8)Neu5Ac(a2-8)Neu5Ac(a2-3)Gal(b1-4)Glc
# Summary of the method: as §1
# [9] = target: Neu5Ac(a2-8)Neu5Ac(a2-8)Neu5Ac(a2-3)[Gal(b1-3)GalNAc(b1-4)]Gal(b1-4)Glc
# Summary of the method: as §1
# [10] = target: Neu5Ac(a2-8)Neu5Ac(a2-8)Neu5Ac(a2-3)[GalNAc(b1-4)]Gal(b1-4)Glc
# Summary of the method: as §1
# [11] = target: Neu5Ac(a2-8)Neu5Ac(a2-8)Neu5Ac(a2-8)Neu5Ac(a2-3)[GalNAc(b1-4)]Gal(b1-4)Glc
# Summary of the method: as §1
# [12] = target: Neu5Ac(a2-8)Neu5Gc(a2-3)Gal(b1-4)GlcNAc
# Summary of the method: as §1
# [13] = target: Neu5Ac(b2-6)Gal(b1-4)GlcNAc
# Summary of the method: as §1
# [14] = target: Neu5Ac(b2-6)GalNAc
# Summary of the method: as §1
# [15] = target: Neu5Ac9Ac(a2-3)Gal(b1-3)GlcNAc
# Summary of the method: as §1
# [16] = target: Neu5Ac9Ac(a2-3)Gal(b1-4)GlcNAc
# Summary of the method: as §1
# [17] = target: Neu5Ac9Ac(a2-6)Gal(b1-4)GlcNAc
# Summary of the method: as §1
# [18] = target: Neu5Gc(a2-3)Gal(b1-3)GlcNAc
# Summary of the method: as §1
# [19] = target: Neu5Gc(a2-3)Gal(b1-3)[Fuc(a1-4)]GlcNAc
# Summary of the method: as §1
# [20] = target: Neu5Gc(a2-3)Gal(b1-4)Glc
# Summary of the method: as §1
# [21] = target: Neu5Gc(a2-3)Gal(b1-4)GlcNAc
# Summary of the method: as §1
# [22] = target: Neu5Gc(a2-3)Gal(b1-4)GlcNAc(b1-3)Gal(b1-4)GlcNAc(b1-2)Man(a1-3)[Neu5Gc(a2-3)Gal(b1-4)GlcNAc(b1-3)Gal(b1-4)GlcNAc(b1-2)Man(a1-6)]Man(b1-4)GlcNAc(b1-4)GlcNAc
# Summary of the method: as §1
# [23] = target: Neu5Gc(a2-3)Gal(b1-4)[Fuc(a1-3)]GlcNAc
# Summary of the method: as §1
# [24] = target: Neu5Gc(a2-6)Gal(b1-4)GlcNAc
# Summary of the method: as §1
# [25] = target: Neu5Gc(a2-6)GalNAc
# Summary of the method: as §1
# [26] = target: Neu5Gc(a2-8)Neu5Ac(a2-3)Gal(b1-4)GlcNAc
# Summary of the method: as §1
# [27] = target: Neu5Gc(a2-8)Neu5Gc(a2-3)Gal(b1-4)GlcNAc
# Summary of the method: as §1
# [28] = target: Neu5Gc(a2-8)Neu5Gc(a2-3)Gal(b1-4)GlcNAc(b1-3)Gal(b1-4)GlcNAc
# Summary of the method: as §1
# [29] = target: Neu5Gc(a2-8)Neu5Gc(a2-6)Gal(b1-4)GlcNAc
# Summary of the method: as §1
# [30] = target: Neu5Gc(b2-6)Gal(b1-4)GlcNAc
# Summary of the method: as §1
binder,measurement,setting,value
B1,glycan array binding signal (z-score),[1],-0.154
same,glycan array binding signal (z-score),[2],-0.022
same,glycan array binding signal (z-score),[3],-0.13
same,glycan array binding signal (z-score),[4],-0.17
same,glycan array binding signal (z-score),[5],-0.036
same,glycan array binding signal (z-score),[6],-0.119
same,glycan array binding signal (z-score),[7],-0.127
same,glycan array binding signal (z-score),[8],-0.116
same,glycan array binding signal (z-score),[9],-0.135
same,glycan array binding signal (z-score),[10],-0.027
same,glycan array binding signal (z-score),[11],-0.104
same,glycan array binding signal (z-score),[12],-0.163
same,glycan array binding signal (z-score),[13],-0.126
same,glycan array binding signal (z-score),[14],-0.124
same,glycan array binding signal (z-score),[15],-0.092
same,glycan array binding signal (z-score),[16],-0.121
same,glycan array binding signal (z-score),[17],-0.121
same,glycan array binding signal (z-score),[18],-0.118
same,glycan array binding signal (z-score),[19],-0.112
same,glycan array binding signal (z-score),[20],-0.118
same,glycan array binding signal (z-score),[21],-0.126
same,glycan array binding signal (z-score),[22],-0.13
same,glycan array binding signal (z-score),[23],-0.121
same,glycan array binding signal (z-score),[24],-0.111
same,glycan array binding signal (z-score),[25],-0.115
same,glycan array binding signal (z-score),[26],-0.164
same,glycan array binding signal (z-score),[27],-0.15
same,glycan array binding signal (z-score),[28],-0.158
same,glycan array binding signal (z-score),[29],-0.169
same,glycan array binding signal (z-score),[30],-0.051
